# Data from the supplement of paper PMC11417369.
# ± gives the standard deviation of the averaged measurements. The list shows a part of the results.
# Test system: PfAP2-G AP2 domain (GST-tagged)
# Assay: gcPBM binding intensity (ln(normalized median fluorescence intensity)); higher = stronger DNA binding
# Summary of the method: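 Binding intensity is the highest Masliner-normalised natural-log median intensity over replicate spots in either probe orientation. To obtain it, GST-tagged P. falciparum DNA-binding domains made in E. coli were incubated for 1 h on an Agilent 4 × 180k array of primer-extended double-stranded 36-bp intergenic genomic probes plus negative controls. Detection used Alexa488 anti-GST antibody with scanning at 488 nm.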
row,Sequence,gcPBM binding intensity (ln)
1,AAAAAAAAAAAAAAAACACACAAGGATCAGATAGAT [CACACA_site7743],10.2 ± 0.18
2,TTTTTCAGAAAAGAAACACACATATAAATATTTATA [CACACA_site7170],9.955 ± 0.021
3,GTTAAACATCTTCTGTGATATGTTAGAATATTATTT [CACACA_negctrl_site687],9.64 ± 0.11
4,TTTTTTTTCTATTGAGCACACATATCACGATTAGTA [CACACA_site7992],10.3 ± 0.35
5,TTTATTAAATATATATGTACATATCAAAATGTATAA [XGTACX_site3181],11.1 ± 0.66
6,TATTTCACAAACCTTACATGCGGTTTATTTATATAT [TGCATGCA_site123],9.72 ± 0.45
7,ATAATTTATATCATTACACACATTTTTTATATTTTT [CACACA_site3450],9.77 ± 0.13
8,TAGTTACATAAAATATGTACGTATAATTTTTTTATT [XGTACX_site3847],11.5 ± 0.92
9,TTTTTGAATGTTTGCACACAAATCTCATAATTTTAG [CACACA_site357],9.955 ± 0.049
10,TAACCAAAAAAAAATATTTAAAATAAATATATATAT [CACACA_negctrl_site1516],9.87 ± 0.58
11,CGTTATATATTTTATAGTACTTTTTGTAAATTTTTT [XGTACX_site7682],11.1 ± 0.67
12,ATTAATAAGAAGAAAAGTACAAAACAAAAAGATATA [XGTACX_site7473],11.2 ± 0.64
13,TATTTTCTCTTAAAAAGTACTCATATATACATTTAT [XGTACX_site7748],11.2 ± 0.88
14,TTTAGTTCATACTATGCACACTACGTATATTTTTAA [CACACA_site5484],10.11 ± 0.028
15,ATAACATACATAACAACACACAATATTTATAGGTAT [CACACA_site6243],9.865 ± 0.007
16,TATTTAAGAGTATGAACACACATCATACCCATATAA [CACACA_site5911],10.2 ± 0.26
17,CATATAAATAAATATACATGCATACATACATATATA [TGCATGCA_site713],9.8 ± 0.042
18,TGTTCTAATATTTGTTGTACGTTTACGTTTCTCTCT [XGTACX_site18],11.4 ± 1.1
19,AACATTTTAAAATAATGTACTTGAAAAAAAAACTAC [XGTACX_site8894],11.1 ± 0.67
20,TTTTATAATTTGAGAACATGCAACATAAATATAAAG [TGCATGCA_site965],10.17 ± 0.071
21,TATAATATATGAAAAAGTACAAATATTTCGATGGTC [XGTACX_site129],11.1 ± 0.7
22,TTAATTTATGTTAATGGTACGTAAATGCATTTATTT [XGTACX_site3002],11.1 ± 0.79
23,ATTTAACCAAATAATATATTTAAAAAATAGTCACAT [CACACA_negctrl_site274],10.1 ± 0.14

row,Sequence,gcPBM binding intensity (ln)
1,ATATTATATAACTTTTGTACGAACTATTTTATATAT [XGTACX_site6],11 ± 0.53
2,ACCTATGTATATTATACACACTCCAAACTATTCTTT [CACACA_site6939],10.16 ± 0.049
3,AATGAAGACTTTTTTACACACTTCATATATTATATA [CACACA_site2034],9.925 ± 0.021
4,TATTTATTTATATATGCATGCTAATAATTATAACAT [TGCATGCA_site988],9.84 ± 0.014
5,TTTAGAGAAGTCAAGTGTACATATAAAATAATTCAC [XGTACX_site4997],11.4 ± 0.88
6,ATAAAAATAAATAAATTATATAAATGTAATATGAAA [GTGCAC_negctrl_site663],9.7 ± 0.14
7,AAAAAAAAATATATATGTACATATGTATAATAAAAA [XGTACX_site2110],11.1 ± 0.6
8,GTATAATTGGAAATTACACACCTTATAATGTAACAT [CACACA_site6091],10 ± 0.12
9,AATGATTTTAAAAAATGTACTTTATAAACAAAATTA [XGTACX_site3803],11 ± 0.67
10,TAAAGTGTCAAATTCACACACATATATATATATATA [CACACA_site1380],9.99 ± 0.26
11,TTTTTTTTTGTTAGTTGTACGTTAAATGAATTTACT [XGTACX_site7675],11.3 ± 0.86
12,TAAATTAGAATAAATACACACAAATTAGAATTCTAT [CACACA_site7781],9.97 ± 0.028
13,ATATTTTCAGTTCTCCATTATGTTCCCATTATTTTT [CACACA_negctrl_site990],10.3 ± 0.15
14,CATGAATATTTTAATGTGCACATTTATCATTATATG,10.3 ± 0.16
15,ATGTAATAAATATACACACACAAATATATATATATA [CACACA_site2395],10.1 ± 0.16
16,CCAAACTAAATGTACACACATACATAAATATAAATA [CACACA_site1141],11.4 ± 1.1
17,ATCATGTTATATATATGTACTAATAATATAATATAA [XGTACX_site1326],11.1 ± 0.59
18,ATATATATATATATATGGTAAAGTAAAAGGAAATAC [XGTACX_negctrl_site45],10.4 ± 0.2
19,TACTAACTTTTTAAAAGTACAGAACCATAACCATAA [XGTACX_site7182],11.4 ± 0.86
20,GAATAATCTAGAAACACACAAACACGACAAAAGAAA [CACACA_site4135],10.2 ± 0.15
21,AGTTTATATTATTAAAGTACATATATATATTCTTAA [XGTACX_site3164],11.1 ± 0.76
22,AGTCGAATGATGTACACACATACAAAACATTTATGC [CACACA_site4022],11.2 ± 0.81
23,ATATTCAATATATTATGTACACATATATGAGGATAT [XGTACX_site7019],11.4 ± 0.7

row,Sequence,gcPBM binding intensity (ln)
1,AAACTTTTTTTAAAAACACACATATATATTTATATA [CACACA_site4092],9.92 ± 0.028
2,TATATATTATAAAAGAGTACAGAAAGAAAAAAAAAT [XGTACX_site8305],11.5 ± 0.85
3,AAATATCTACATATTTGTACATATTTATACATATTT [XGTACX_site6300],10.7 ± 0.45
4,GAAAAGTAGACAATATGTACATATAGTATTTATAAA [XGTACX_site878],11.1 ± 0.69
5,AGCAACCCCCTAGCTACACACATATAGATATAAATA [CACACA_site6577],10.9 ± 0.35
6,GTTTAAAATCTTTGCACACATATAAATAAATATATT [CACACA_site2555],10.2 ± 0.33
7,AGTATATTAATATAATGTACAAACGTTTATTTTGTA [XGTACX_site5980],10.7 ± 0.37
8,ACATATAAATTATATACACACAATAATATATATATA [CACACA_site1384],9.87 ± 0.13
9,TAAAAAAGTTATATTACACACTTTATTGGTTAACTT [CACACA_site653],10 ± 0.14
10,ATAATGTTTCTTTCAACACACAAAAAATGAACCCAT [CACACA_site4947],10.6 ± 0.51
11,TATTTATAAAAAAAATGTACATTTATGTATAAGCTA [XGTACX_site3266],10.8 ± 0.54
12,TAAATTTATTAATCAAGTACAAAATAAATTTTTATA [XGTACX_site2745],10.7 ± 0.67
13,AATATCAATATTATATGTACTTATAATTTCAATGTA [XGTACX_site2423],11.3 ± 0.79
14,AAAATTTAATATAATGCACACATAAAAAAAAAATCA [CACACA_site7882],9.97 ± 0.12
15,TATATATAGAAACACACACACACATATATATATATA [CACACA_site4116],10.1 ± 0.24
16,TATAATAGCTTCTTTACACACACCATTTTTTTTTTT [CACACA_site1456],9.95 ± 0.042
17,CTTACATATTACATATGTACATATACACCTTATGTC [XGTACX_site4679],11 ± 0.43
18,TATAAATTTTGTTTAGCACACACACCGACATACATA [CACACA_site9033],10.5 ± 0.46
19,ATGTTGTACAGACACACACACAAAAAAAAAATAAAA [CACACA_site7184],11.1 ± 1.1
20,ATATATATATATATATGTACATACATACAATCATAT [XGTACX_site6410],11.3 ± 0.7
21,CATCAAGTGAATTGTTGTACTTTACATTGTTTTTAT [XGTACX_site7261],11.1 ± 0.62
22,ATATATTTTTAATTTGCATGTAGTAAAGCCTTAAAT [TGCATGCA_site593],10 ± 0.26
23,TTAAATGTGAAGTGAATACACACCTAATAAATATAA [CACACA_site3194],10 ± 0.11

row,Sequence,gcPBM binding intensity (ln)
1,TTTTTTACATACAGAAATATATAATATAAAATAAAT [GTGCAC_negctrl_site278],9.86 ± 0.19
2,TTATGTATTACCTGCCGTACTTCTAAAATAATTAAA [XGTACX_site1716],11.2 ± 0.77
3,TTTAATTTTTATATAACACACATATTGGAATTATGT [CACACA_site734],9.9 ± 0.17
4,ATATATTTACTTAATACACACAAAAAAAAAAAAAAA [CACACA_site3657],9.92 ± 0.52
5,ACTGTCATTTATTGTAGTACGTCAATTTATTACATT [XGTACX_site2749],11.4 ± 0.65
6,TATCTTCATTTTTTTGGTACGCACGCAAATATGGCT [XGTACX_site3107],11.3 ± 0.79
7,TGTTACAAAAAATAATGTACTTAATATATATATATA [XGTACX_site1016],11 ± 0.7
8,AAAAATATTATAAGCACACATATATATATATATATA [CACACA_site2458],10.4 ± 0.86
9,TGAATATTCATGTGTGTGCGCATGTTGTTAGACCAT [GTGCAC_site9869],10.7 ± 0.4
10,TGTTTTCTTGATTATTGTACTTTAATTAGTAATATG [XGTACX_site8674],11.5 ± 0.69
11,TAAATACATTTATGTACACACACATAGATGTATATT [CACACA_site5618],11.3 ± 0.89
12,TAATAATAAATAAAATGTACATATGAACAAATAAGT [XGTACX_site6710],11.3 ± 0.61
13,AAAAAAAAAATTAATTGTACTAAAAAAATATTATAT [XGTACX_site8903],11 ± 0.59
14,TATAATATGTTATATACACACATTATAAAATACACA [CACACA_site6742],10 ± 0.25
15,CTCCTTTCAAAAAAATGTACATGTTTACATTTCAAG [XGTACX_site7342],11.2 ± 0.79
16,TATATTATTTTTAGAAGTACTTATTGTTATAATTCT [XGTACX_site1015],11.2 ± 0.7
17,AGAAAAGATAAAAATAGTACATATATATTTACTTAT [XGTACX_site7820],11.1 ± 0.72
18,ACGATTAAATCGATAATACACACTAAATGTAAAACA [CACACA_site119],9.97 ± 0.028
19,TATACACATATTTTTACACACATATTTTTTCATATA [CACACA_site7244],10.1 ± 0.23
20,TTATATATAATATGACGTACAATTATACATTTTATG [XGTACX_site7598],11.4 ± 0.83
